These results are taken from the supplement of paper PMC10681739.

± gives the standard deviation of the averaged measurements. In all, about 4,100 sequences were measured (“arbitrary fluorescence units”: median about 780, highest 2% from about 22,000 on). Some of the results follow.

In the assay the target is T1, ETS1 (UniProt P14921).
T1 sequence: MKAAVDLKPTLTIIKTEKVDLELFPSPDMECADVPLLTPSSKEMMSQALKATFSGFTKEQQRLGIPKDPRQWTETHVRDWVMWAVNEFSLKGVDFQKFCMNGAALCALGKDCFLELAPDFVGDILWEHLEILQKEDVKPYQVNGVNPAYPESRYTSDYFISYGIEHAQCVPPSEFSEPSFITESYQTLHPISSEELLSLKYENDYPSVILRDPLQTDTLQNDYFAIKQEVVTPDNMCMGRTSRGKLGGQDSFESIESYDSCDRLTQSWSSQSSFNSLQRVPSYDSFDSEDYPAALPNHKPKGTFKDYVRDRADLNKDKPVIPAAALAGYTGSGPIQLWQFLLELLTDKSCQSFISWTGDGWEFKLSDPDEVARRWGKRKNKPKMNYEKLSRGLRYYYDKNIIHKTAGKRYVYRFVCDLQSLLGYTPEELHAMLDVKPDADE
The assay is described as follows: ETS1 binding intensity (PBM fluorescence), ETS1 alone (arbitrary fluorescence units); higher = stronger binding. The conditions noted are these: ETS1 concentration 1 nM; RUNX1 concentration 0 nM. In outline:
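Recombinant full-length human ETS1 was applied at 1 nM, without RUNX1, to double-stranded Agilent 4 × 180k arrays of 36-bp genomic probes carrying a mutated RUNX1 partner site, following standard PBM protocols. Detection used an anti-ETS1 antibody (Cell Signaling Technology 14069) and an Alexa488-conjugated secondary antibody, with scanning on a GenePix 4400A. Each sequence was printed as four replicate spots. Binding level is the spot fluorescence intensity, summarised across replicates and not normalised.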
TGCTCCACTCGGAAGTGGTGCCGAAGCTCTTCGATG showed an ETS1 binding intensity of 905. Then GCTCAGCGGCCTCGCGCCATCGTTTCCGGTGGGCAG, with 8000; and TGGGGCTAGGCTTCCGGGGCTCTGCAGTCCTCGGCC, with 3440. Then CTGGTAAGGAAGCTGGCCAAAATCCACTGAAACCAA, with 451; and CTCTTTGTAGCTCCCGCGAGAGTCCGCCTTCCGCCG, with 437. With ACCCCCACCCCCGCCTTCTTGTGCGAGGATGTCATG the figure was 447; with CATCTGCGTCCGGCACCCAGGAGGCTCGTTGTCCGC, 1410; with CTCTTCCGCTCAGTCATCCTCAGAGGTGCTAAGACT, 10100. For the sequence GCTGAGGGCGCCGGCAATCGAGTGGCTTCCTGGCCA, the ETS1 binding intensity turned out to be 475. Then GTGATAAGAACGACAGGCCACTTCCCAAAGATCAAA, with 531; and CCCAGGGCTGAGGGCTCCTGAGCCAGGAAATGGGTC, with 382; and TAAGCCCGCTGTAGATTGTTATGTCCGGAATCCGCT, with 368 ± 6.

For the sequence CATTTCCTGATCTGACCTCTGGGGAGGCCAGAGAGC, the ETS1 binding intensity is 11200. With CCAGCCCAGGAAACAAGGAACCCCAAAGCTACAGGA the figure was 652; with CTGCTGAGTGGCATCCGTGGTGTGCGTACGGCACCG, 560. Then GGAGAAATAGAGCGCGCTTTGTGCGGAAGCTGTCAG, with 367; and TGAGTCAGTAGCCCCAAGTAGAACAGGAAGTGGAAA, with 2530; and GGTGTTACACCCCAGCCTTCCAGGAAGGGGCAGGGG, with 489.

AAGAGGAAATAAATACCAGAGTGAACTCACAAACCT came in with an ETS1 binding intensity of 594. ATTGCTTCCGACGCTACTCCTGCCGGGTCACGACAG had an ETS1 binding intensity of 1800. For the sequence TCTTTGCTGGTGGCTACCTTTACAGGAAATCTCTTA, the ETS1 binding intensity was found to be 482. Then AATTAAATTGTCGTAGATAGTAAAAGGAAGTAGTTA, with 591; and AGCTTTCTCTGGTGTAAACAGGAAGCGAGACCATGT, with 2480.

Turning to TCCCAGTTTATGGGAAGGGTTGAGGGAAGTGAGGGG, the ETS1 binding intensity turned out to be 531. Turning to CGCCGCTCAACTTCCGGCAACCAGAGCTCTCTCTGA, the ETS1 binding intensity was found to be 18300. Then GCGGGGCCGTACGGTAGGCGGAAAAGATGCGCAATT, with 411. With AGGAGAGGATGTTGCTTGAAGGTGTTGTCTCCTCCA the figure was 1010; with GCGGCCGGGATGTGGAGGGTGAGCGCTGTGAGCAGC, 526. With AGCTTCCGAGTCTGTTGTGGAGTGGGAACAGCGACT the figure was 2510; with CTTCACTATGCATCCTGTACTGCAACGACACCAAAC, 3580; with TTTGGGGTAACCTACAGAATTATCAGGATGTCTCAG, 431. The sequence AAGTGATCGCGAGGTGCGCCGGCCCGCGAGGAAACG showed an ETS1 binding intensity of 310.

Consider GGGGGGAAGTGGCGCCACCAGGTGGAGGTTGCTTTG, for which the ETS1 binding intensity amounted to 986. Then CTTCCTTCCCTTCCTTCTGCTCCCTCCCAGAGCCGC, with 852. With TGACGGATGCACGGGCGCAGCGGCGGCCTGCAGGGG the figure was 422. GGCCGGCTTCCGGGGCGGGTGGAAAGGAGCCCCAAG gave an ETS1 binding intensity of 7570. In turn, CGCCCCGGCAGCCGCCCACGTCCGGGGGCCAGGCCT gave an ETS1 binding intensity of 802. For CTCCGCCTTTCACTTCCTAGTAACCCCCCTCCCTTG, the ETS1 binding intensity was found to be 975. Then AGACTTCACCGAAGCTTGCTGCCTCAGAGGATGTCA, with 360. With CTCCGCTGTCCCCTGCAGGCACCGAGGGCGGAACCA the figure was 347; with GTGGCTGCTGTGCTCAGGCTGTTCTTTCCTGTTGCT, 373; with TTGAAAAGGAAGTTCATTTGTACTGAGGTGGATTTA, 1170.

In turn, TATCAGGAAAAGCGTCTCAGTCCTCCTTGTGAGCGG yielded an ETS1 binding intensity of 371. Then GAGAAAGCTGCAGACACTGCTTACAGCTTTTCCTGT, with 444; and CCGCGTCCTCAGAGGTCCGGCCGGAAGTCACCTGAA, with 8340 ± 1500. With CTGACTGTGATAAACCGATCTGGCTTCAGGAAGTCC the figure was 360.

TTGAGGGTGTGTCTCTTTCGGTCTTACATCCTAACA displayed an ETS1 binding intensity of 478. The sequence AGGGCATTTCCTTTGGGGCTGGTGCTCACGGACAAC yielded an ETS1 binding intensity of 6490. Then GAGCTGCTCCGGAAGGGTGGTGTGTGCTCAACCTTG, with 678; and TAGGCCGGAAAGCACCACCGTCCTCCCGTAGGCCGC, with 860. With GTGGAAGAAATCGCTTCGGCAGCAGAGGAAACAGCA the figure was 402; with GCGTCGGCTACAAGGCGTTTTACGTTCCGCCCCCTG, 300.

In turn, CGGCCTGCGCGGGGAGTTTAGGGAAGTGGCAGGGTG returned an ETS1 binding intensity of 321. Then CTGCTGGGCCCCTTCCTGTCAGCGGCTGCTCTTTAC, with 2950; and AGCTTAATGGGGTTGGAGAACATCCTGTCTTATTGA, with 3940; and CTTCTAGGAAATGTAGTTCCTGGGCCCTCAGCCGGG, with 413.

For the sequence CCCCATCCTTGACAACAGGACCAGGAAGTCAGGGCA, the ETS1 binding intensity is 1230. Then GTATGGGAAGTGATCTGGCTGCAAATCGCAAGAGAG, with 488. With ACTGGGGTTTCGGCGTCTAAGTGTTTCCGGTGGATT the figure was 3980. With TGAAGAACCAGCAGCAGCTCCCAGGATGAACTGGTT the figure was 325.

Consider ACAGCATTTCCTGGTGGCCAGATATCTGAGCTTTCA, for which the ETS1 binding intensity is 7160. Then TCCCCTACCGTTAGTGGAAGAAGATGGCGGAAGGCG, with 451; and GGATGAACAGGAAGCTAAAGTAAATACGACAGTGAC, with 2270; and CTCAGCCCTCCGCTGCGCGGCCGGAAGTCGGAGGTT, with 4040.

Turning to GCCCACGCCGCTGGGAGGTGAGACTGAAGGAAGCAC, the ETS1 binding intensity was found to be 402. GGGCCGCGATCAGGGCTGGCCACGGGAAGCAGACAG gave an ETS1 binding intensity of 302. Then AGACCCGGAAATGGTGGGTGTTTCTTGCAACCTCGG, with 5480; and CTGGGGACCTGTGATTTGCTGGCGGAAACAAGTGAT, with 418. With TAAGTGCAGGAAACGGCTGTGTAGGTGTCAGTGATT the figure was 1970; with CCAGACAGTTTCCTCTGGTTGAGGGTGATGGTTCCA, 1650.

As for TTCTCATTTGTAGGTATCTGACAACATCCTCCTCTC, the ETS1 binding intensity was found to be 581. With AAAACAAGGACTTCCGCCTCCCTGCAGTCCCTCCCC the figure was 9360; with AGCAGGAAGTATGTTGAAAGTCATAATCACAGCAAA, 2060.

The sequence ACAGGAAATGTTAGAGGTTGAGTTAGAGGTTATGAG displayed an ETS1 binding intensity of 629. Then AGGCCGCCTACAGGATGTTGGAAACTACAGGGCCCG, with 2640; and ACAGGAAAAGCTGTAAGCAGTGTCTGCAGCTTTCTC, with 437. With TCCTGGCTGCCCCCAAGGCCAGGAAGAGCGAAAACA the figure was 434; with ACCATCCTGTAGTCTGTTAAGTGAGCAACAGCATTA, 4970. In the case of GGCGGGAGAGGAAGCCGGGCGGCCGAAGCTGCCTGT, the ETS1 binding intensity is 811. GGAGCAGGAAGCGTCGCCGGGGGGCCTACAAGGGTA showed an ETS1 binding intensity of 1810.
